{"source": "PubChem BioAssay AID463173", "about": "(ICCB-Longwood Screening Facility, Harvard Medical School, 2010)", "note": "The campaign covered roughly 52,000 compounds. About 1,700 (3.3%) were called active. No stated cut-off is given here; in the data, active means survival mostly below about 52% (no sharp cut-off); inactive means mostly above about 56%. The list shows a part of the results.", "data": [{"test_system": "Wild type", "assay": "growth inhibition of S. aureus wild type versus tarO mutant, primary screen, teichoic acid synthesis inhibitors, RN4220, OD600 (AID 463173)", "conditions": "S. aureus RN4220 wild type/DeltatarO growth, OD600, 18 h, active compounds read low, screened at 18.75 µg/mL (by protocol)", "values": [{"molecule": "COC(C(=O)Nc1ccc2c(c1)OCCO2)c1ccccc1", "note": "(stereo not given)", "survival": "inactive: 114%"}, {"molecule": "Cc1ccc(Nc2c(-c3ccc(C)o3)nc3cccc(C)n23)cc1", "survival": "active: 21%"}, {"molecule": "CCS(=O)(=O)c1ncc(Cl)c(C(=O)NCc2ccccc2)n1", "survival": "inactive: 75%"}, {"molecule": "Cc1cc(C)cc(-n2c(SCC(=O)N3CCCCCC3)nc3c([nH]c4ccccc43)c2=O)c1", "survival": "inactive: 78%"}, {"molecule": "c1ccc(Cn2nnnc2C(c2cccs2)N(Cc2cccnc2)Cc2ccco2)cc1", "note": "(stereo not given)", "survival": "inactive: 129%"}, {"molecule": "COc1ccc(-c2cc(=O)oc3c4c(ccc23)OCN(Cc2ccccc2)C4)cc1", "survival": "inactive: 89%"}, {"molecule": "O=C(Nc1cc(F)ccc1F)c1ccc(CN2CC(=O)N3CCCCC3C2=O)cc1", "note": "(stereo not given)", "survival": "inactive: 76%"}, {"molecule": "CC(=O)c1ccc(NC(=O)CSc2nnc(N)s2)cc1", "survival": "inactive: 80%"}, {"molecule": "COc1cc(Cl)c(C)cc1NC(=O)Cn1c(C)c2cnn(-c3ccccc3)c(=O)c2c1C", "survival": "inactive: 87%"}, {"molecule": "C=C(C)Cn1c(SCC(=O)c2ccccc2)nc2sc3c(c2c1=O)CCCC3", "survival": "inactive: 84%"}, {"molecule": "CC(=O)Nc1c(C)nn(-c2ccccc2)c1N1CCC(C(=O)NCc2ccc(F)cc2)CC1", "survival": "active: -3%"}, {"molecule": "O=C(Nc1cccc(C(F)(F)F)c1)C1CCN(S(=O)(=O)c2cccs2)CC1", "survival": "inactive: 92%"}, {"molecule": "O=C(O)CC1S/C(=N/N=C/c2ccccc2)NC1=O", "note": "(stereo not given)", "survival": "inactive: 108%"}, {"molecule": "COCCn1nnnc1C(CC(C)C)N1CCN(c2cc(Cl)ccc2C)CC1", "note": "(stereo not given)", "survival": "inactive: 109%"}, {"molecule": "CCn1cc2nc(SCc3cccc(C(F)(F)F)c3)n(Cc3ccc(OC)cc3)c(=O)c2n1", "survival": "inactive: 71%"}, {"molecule": "NC(=O)C1CCN(C(=O)CCSc2ccc(Cl)cc2)CC1", "survival": "inactive: 100%"}, {"molecule": "COc1cc2c(cc1NC(=O)COc1ccc(Cl)cc1)oc1ccccc12", "survival": "inactive: 83%"}, {"molecule": "COc1ccc(NC(=O)Cn2c(=O)n(Cc3ccco3)c(=O)c3oc4ccccc4c32)cc1Cl", "survival": "inactive: 78%"}, {"molecule": "CN(C(=O)c1ccccc1)C1CCS(=O)(=O)C1", "note": "(stereo not given)", "survival": "inactive: 111%"}, {"molecule": "CC(=O)Nc1ccc(C(=O)Nc2ccc3c(c2)N(C2CCCC2)C(=O)c2ccccc2S3)cc1", "survival": "active: -6%"}, {"molecule": "COc1ccc(-n2ncc3c2ncn2nc(Cc4ccccc4)nc32)cc1", "survival": "inactive: 89%"}, {"molecule": "Cc1ccccc1CNCc1c(C(=O)O)c(C)n(Cc2ccc(F)cc2Cl)c1C", "survival": "inactive: 79%"}, {"molecule": "Cc1ccc(-c2noc(-c3nnn(-c4ccc(Br)cc4F)c3C)n2)cc1", "survival": "inactive: 89%"}, {"molecule": "O=C(N1CCOCC1)N1CCN(Cc2ccccc2)CC1", "survival": "inactive: 90%"}, {"molecule": "O=C(Nc1ccc(F)cc1)c1cc2cc3ccc(Cl)cc3nc2o1", "survival": "inactive: 88%"}, {"molecule": "Cc1nc(N2CCN(C(=O)c3ccco3)CC2)c2c3c(sc2n1)CC(C(C)(C)C)CC3", "note": "(stereo not given)", "survival": "inactive: 98%"}, {"molecule": "Cc1ccc(C(=O)N2CCCn3c2nc2ccccc23)cc1", "survival": "inactive: 100%"}, {"molecule": "Clc1ccccc1CN1CCc2nc(N3CCN(c4ncccn4)CC3)ncc2C1", "survival": "inactive: 72%"}, {"molecule": "Cc1nc(-c2cccc(S(=O)(=O)N3CCC(C(=O)NCc4ccccc4Cl)CC3)c2)no1", "survival": "inactive: 72%"}, {"molecule": "CCc1c(C)sc2c1CCN(C(=O)Nc1cc(C)ccc1C)C2c1ccc(OC)cc1", "note": "(stereo not given)", "survival": "inactive: 88%"}, {"molecule": "COc1ccc(OC)c(CCNC(=O)Cn2nc(C)n3c(cc4sccc43)c2=O)c1", "survival": "inactive: 91%"}, {"molecule": "COc1ccc(-n2ncc(C(=O)NCCN3CCOCC3)c2C2CCN(C(=O)OC(C)(C)C)CC2)cc1", "survival": "inactive: 131%"}, {"molecule": "Cc1cccc(CSc2nnc(CCCCCN)o2)c1", "survival": "inactive: 76%"}, {"molecule": "Cc1ccc(C)c(NC(=O)c2nnn(Cc3ccc(F)cc3Cl)c2N)c1", "survival": "inactive: 80%"}, {"molecule": "Cn1nc(-c2ccccc2F)c2cc(C(=O)NCc3cccc(Cl)c3)sc21", "survival": "inactive: 70%"}, {"molecule": "Cc1cc(C)cc(NC(=O)c2cc(S(=O)(=O)N3CCCC3)ccc2F)c1", "survival": "inactive: 90%"}, {"molecule": "O=C(O)CSc1nc2ccccc2c(=O)n1Cc1ccco1", "survival": "inactive: 107%"}, {"molecule": "COc1cc(OC)c(NC(=O)N2CCc3cc(S(=O)(=O)N4CCC(C)CC4)ccc32)cc1Cl", "survival": "inactive: 76%"}, {"molecule": "O=c1oc2ccc3ccccc3c2cc1-c1nnc(Nc2cccc(C(F)(F)F)c2)s1", "survival": "inactive: 94%"}, {"molecule": "CCC1Oc2ccccc2N(CC(=O)NCCc2ccc(OC)c(OC)c2)C1=O", "note": "(stereo not given)", "survival": "inactive: 111%"}, {"molecule": "O=C(NCCc1ccccc1)c1cnc2sc(N3CCCCC3)nn2c1=O", "survival": "inactive: 85%"}, {"molecule": "COc1ccc(CCNS(=O)(=O)c2ccc(N3CCCCS3(=O)=O)cc2)cc1", "survival": "inactive: 127%"}, {"molecule": "O=C(c1cc2c(s1)-c1ccccc1OC2)N1CCN(c2ccc(F)cc2)CC1", "survival": "inactive: 69%"}, {"molecule": "CC1CCC(NC(=O)Cn2ncc3c4ccccc4n(Cc4ccc(F)cc4)c3c2=O)CC1", "note": "(stereo not given)", "survival": "inactive: 82%"}, {"molecule": "O=c1[nH]c2ccc(NCc3ccc(-c4ccc(F)cc4)o3)cc2[nH]1", "survival": "inactive: 102%"}, {"molecule": "c1ccc2c(c1)ncc1nncn12", "survival": "inactive: 67%"}, {"molecule": "CC(=O)c1cccc(NC(=O)C2CCN(S(=O)(=O)c3ccccc3)CC2)c1", "survival": "inactive: 73%"}, {"molecule": "COc1ccc(CNC(=O)c2nn(C)c3c2CS(=O)(=O)c2ccccc2-3)cc1", "survival": "inactive: 87%"}, {"molecule": "Cc1ccc(CN(C(=O)COc2ccc([N+](=O)[O-])cc2)c2ccccn2)o1", "survival": "inactive: 83%"}, {"molecule": "CCC1CCCCN1S(=O)(=O)c1cc2c(cc1C)NC(=O)CO2", "note": "(stereo not given)", "survival": "inactive: 98%"}, {"molecule": "CC(=O)c1ccc(NC(=O)CSc2ccc3nnc(CCNS(=O)(=O)c4ccc(C)cc4)n3n2)cc1", "survival": "inactive: 91%"}, {"molecule": "Cc1ccc(Nc2ncc(C(=O)Nc3ccc(F)cc3F)c3ccccc23)cc1Cl", "survival": "inactive: 76%"}, {"molecule": "O=C(COc1ccccc1)Nc1nnc(SCc2cc(=O)n3cc(Cl)ccc3n2)s1", "survival": "inactive: 57%"}, {"molecule": "COc1ccc(CCNC(=O)CCS(=O)(=O)c2cc3c(cc2Cl)NC(=O)CO3)cc1OC", "survival": "inactive: 86%"}, {"molecule": "CCCc1nn2cc(-c3ccc(C)c(C)c3)nc2s1", "survival": "inactive: 117%"}, {"molecule": "CCOC(=O)Cc1c(C)nc2c(-c3ccc(Cl)cc3)c(C(F)(F)F)nn2c1C", "survival": "inactive: 49%"}, {"molecule": "COc1ccc(-c2noc(CSc3nnc(Cc4ccccc4)n3-c3cccc(C)c3)n2)cc1", "survival": "inactive: 67%"}, {"molecule": "COc1ccc(/C=C/C(=O)Nc2ccc3nc4c(c(Nc5ccc(OC)c(OC)c5)c3c2)CCCC4)cc1", "survival": "inactive: 73%"}, {"molecule": "Cc1cc(C)n(CC(C)O)c(=O)c1C#N", "note": "(stereo not given)", "survival": "inactive: 106%"}, {"molecule": "CCc1nnc(SCC(=O)Nc2cccc(C(F)(F)F)c2)c2cc3oc(C)cc3n12", "survival": "inactive: 74%"}, {"molecule": "Cc1ccc2onc(CNC(=O)NCc3ccccc3)c2c1", "survival": "inactive: 91%"}, {"molecule": "CCC(C(=O)Nc1ccccc1OC)n1c(C(=O)OC)cc2sc(Cl)cc21", "note": "(stereo not given)", "survival": "active: 0%"}, {"molecule": "Cc1oc(-c2ccccc2Cl)nc1CS(=O)(=O)CC(=O)NC(C)c1ccccc1", "note": "(stereo not given)", "survival": "inactive: 97%"}, {"molecule": "CCOCCCNC(=O)c1ccc2c(=O)n(CCc3ccc(OC)c(OC)c3)c(=O)[nH]c2c1", "survival": "inactive: 85%"}, {"molecule": "CC(=O)N1CCc2cc(S(=O)(=O)NC(CC(C)C)C(=O)NCCc3cccc(C)c3)ccc21", "note": "(stereo not given)", "survival": "inactive: 76%"}, {"molecule": "CCOc1ccccc1CNC(=O)CSc1nnc(C)c2c(C)n(-c3ccccc3)nc12", "survival": "inactive: 72%"}, {"molecule": "Cc1ccc(NC(=O)c2ccc(CNS(=O)(=O)c3ccc4c(c3)C(C)(C)C(=O)N4C)cc2)cc1F", "survival": "inactive: 83%"}, {"molecule": "CCCCOc1ccccc1C(=O)N(Cc1cccc(F)c1)C1CCS(=O)(=O)C1", "note": "(stereo not given)", "survival": "inactive: 85%"}, {"molecule": "CCOC(=O)C1=C(CN(C)Cc2ccccc2)NC(=O)NC1c1ccc(OC)cc1", "note": "(stereo not given)", "survival": "inactive: 71%"}, {"molecule": "O=C(NCC(c1cccnc1)N1CCc2ccccc21)c1ccc(F)cc1", "note": "(stereo not given)", "survival": "inactive: 105%"}, {"molecule": "CCOc1ccc(NC(=O)N(C)CCc2c(C)nn(C)c2C)cc1", "survival": "inactive: 76%"}, {"molecule": "CCOc1ccc(CCNC(=O)CSc2nnnn2-c2ccc(C)cc2C)cc1OCC", "survival": "inactive: 82%"}, {"molecule": "COc1ccc(OC(C)C(=O)NCc2nc(-c3cccc(C)c3)no2)cc1", "note": "(stereo not given)", "survival": "inactive: 87%"}, {"molecule": "COCCN1Cc2cc3cc4c(cc3nc2SC1=Nc1cccc(OC)c1)OCO4", "survival": "inactive: 113%"}, {"molecule": "Cc1ccc(NC(=O)C(C)Sc2nc(N)cc(N)n2)c(C)c1", "note": "(stereo not given)", "survival": "inactive: 108%"}, {"molecule": "COc1cc(OC)c(NC(=O)C(Cc2ccccc2)NS(=O)(=O)c2cccc3nsnc23)cc1Cl", "note": "(stereo not given)", "survival": "inactive: 82%"}, {"molecule": "CN(C)c1ccc(NC(=O)CSc2nc3ccsc3c(=O)n2CCCCCC(=O)O)cc1", "survival": "inactive: 70%"}, {"molecule": "O=C1CC2CCC(CN1)N2S(=O)(=O)c1ccc(C(=O)O)cc1", "note": "(stereo not given)", "survival": "inactive: 107%"}, {"molecule": "Cc1c(C(=O)N(Cc2ccco2)Cc2ccccc2Cl)oc2ccc(F)cc12", "survival": "inactive: 84%"}, {"molecule": "COc1ccc(CC(=O)Nc2cc(-c3cn4cccnc4n3)ccc2OC)cc1", "survival": "inactive: 119%"}, {"molecule": "CCCCC(=O)NC1(C(F)(F)F)C(=O)Nc2c1c(=O)[nH]c(=O)n2-c1ccc(C)c(C)c1", "note": "(stereo not given)", "survival": "inactive: 64%"}, {"molecule": "O=C(Nc1ccc2nc(SCCOc3ccccc3Cl)sc2c1)c1ccc2c(c1)OCO2", "survival": "inactive: 89%"}, {"molecule": "CC(C)CCNC(=O)CN1C(=O)c2cccnc2Sc2ccccc21", "survival": "inactive: 69%"}, {"molecule": "CC(=O)c1cccc(NC(=O)Cc2noc3ccccc23)c1", "survival": "inactive: 90%"}, {"molecule": "CCS(=O)(=O)c1ccccc1C(=O)Nc1ccc(-c2nc3ccccc3s2)cc1", "survival": "inactive: 77%"}, {"molecule": "COc1cccc(NC(=O)CSC2=Nc3ccccc3C3=NC(CC(=O)NCc4ccc5c(c4)OCO5)C(=O)N23)c1", "note": "(stereo not given)", "survival": "inactive: 143%"}, {"molecule": "Cc1cc(C)c(NC(=O)C(=O)NCC(c2cccnc2)N2CCN(Cc3ccccc3)CC2)c(C)c1", "note": "(stereo not given)", "survival": "inactive: 84%"}, {"molecule": "O=C(c1cccnc1)N1N=C(C(F)(F)F)CC1(O)c1cccnc1", "note": "(stereo not given)", "survival": "inactive: 97%"}, {"molecule": "Cc1ccccc1-c1noc(-c2ccc(N3CCN(C)CC3)c([N+](=O)[O-])c2)n1", "survival": "inactive: 73%"}, {"molecule": "c1ccc(-n2nnnc2NC2CCCCCC2)cc1", "survival": "inactive: 104%"}]}]}
